Source: publication PMC4336329 (PLoS ONE, 2015)
About 14,000 (4.5%) of roughly 310,000 compounds showed an effect of 50% or more. Effects have a minus sign here. Some of the results follow.

target: human ether-à-go-go-related gene (hERG) potassium channel (human, UniProt Q12809); assay: primary screen, population patch clamp on CHO cells stably expressing hERG
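Also: peak tail current of the secondary pulse compared with the same well before compound.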

human ether-à-go-go-related gene (hERG) potassium channel, sequence (Q12809 whole entry, looked up): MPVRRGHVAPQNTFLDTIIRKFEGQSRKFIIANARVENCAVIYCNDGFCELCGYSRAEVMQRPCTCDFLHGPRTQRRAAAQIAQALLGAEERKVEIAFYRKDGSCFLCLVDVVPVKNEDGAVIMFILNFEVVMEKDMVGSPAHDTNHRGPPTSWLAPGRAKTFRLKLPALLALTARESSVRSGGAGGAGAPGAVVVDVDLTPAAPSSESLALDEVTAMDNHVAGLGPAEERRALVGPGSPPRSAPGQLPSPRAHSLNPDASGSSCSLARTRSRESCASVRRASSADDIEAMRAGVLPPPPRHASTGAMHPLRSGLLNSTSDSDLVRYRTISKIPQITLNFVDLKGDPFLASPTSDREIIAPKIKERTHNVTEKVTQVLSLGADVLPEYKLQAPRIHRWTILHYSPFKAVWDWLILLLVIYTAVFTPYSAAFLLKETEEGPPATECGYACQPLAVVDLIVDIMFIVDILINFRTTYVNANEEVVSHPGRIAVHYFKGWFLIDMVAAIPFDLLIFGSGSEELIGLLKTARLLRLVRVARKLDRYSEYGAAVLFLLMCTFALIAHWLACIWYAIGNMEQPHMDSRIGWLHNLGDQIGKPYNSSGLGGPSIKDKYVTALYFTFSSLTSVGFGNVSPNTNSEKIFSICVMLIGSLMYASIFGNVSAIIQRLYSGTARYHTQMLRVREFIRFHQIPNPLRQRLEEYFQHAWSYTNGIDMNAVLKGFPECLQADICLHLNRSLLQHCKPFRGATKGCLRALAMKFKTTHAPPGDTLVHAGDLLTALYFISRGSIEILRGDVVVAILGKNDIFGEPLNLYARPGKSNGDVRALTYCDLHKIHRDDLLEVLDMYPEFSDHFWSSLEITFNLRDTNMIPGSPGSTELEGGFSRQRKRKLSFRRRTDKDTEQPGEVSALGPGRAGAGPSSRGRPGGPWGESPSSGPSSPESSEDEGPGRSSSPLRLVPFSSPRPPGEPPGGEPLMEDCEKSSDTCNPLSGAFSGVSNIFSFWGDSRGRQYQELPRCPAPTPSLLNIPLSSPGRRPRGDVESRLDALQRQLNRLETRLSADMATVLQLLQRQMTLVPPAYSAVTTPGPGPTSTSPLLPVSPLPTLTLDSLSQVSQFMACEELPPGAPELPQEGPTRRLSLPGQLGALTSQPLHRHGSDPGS

Structure (SMILES) | hERG current change (%, negative = inhibition) at 10uM
COc1ccc(NC(=O)c2[nH]c(C)c(C(C)=O)c2C)cc1S(=O)(=O)N1CCOCC1 | 1.8%
Cc1ccc(N2CC(C(=O)Nc3cccnc3)CC2=O)cc1 (centres unmarked) | -9.42%
Cc1ccc(N(C(=O)c2csnn2)C(C(=O)NCc2ccccc2)c2cccnc2)cc1 (centres unmarked) | 5.25%
COc1ccccc1Nc1nc2ccccc2n1C | -3.73%
O=C(NCc1ccccc1)/C(=C\c1ccc(O)cc1)NC(=O)c1ccco1 | -20.7%
CNC(=S)N(Cc1ccccc1)Cc1cccnc1 | 8.19%
CS(=O)(=O)N(CC(=O)N1CCOCC1)c1cccc([N+](=O)[O-])c1 | 6.28%
FC(F)(F)c1cc(C(F)(F)F)c2ccc(N3CCN(c4ccc(Cl)cc4)CC3)nc2n1 | -8.81%
CNc1ccccc1C(=O)OCC(C)=O | 9.88%
O=c1c2ccccc2cnn1Cc1n[nH]c(=S)n1-c1ccc(F)cc1 | 12.2%
COC(=O)C1=C(c2ccc(F)cc2OCc2ccccc2)C[C@@H]2CC[C@H]1N2C(=O)NCc1ccc(C)cc1 | 12.1%
CCCCn1c(SCc2nc(N)nc(N3CCCCC3)n2)nc2c1c(=O)n(C)c(=O)n2C | -3.14%
Cl.Nc1ccc(N(CCO)CCO)cc1 | 36.3%
COc1cc(C2Nc3ccccc3C(=O)N2NS(C)(=O)=O)ccc1O (centres unmarked) | 2.44%
Cc1[nH+]csc1CCOC(=O)c1ccccc1.[Cl-] | 17.5%
C/C(=N\O)c1cccc(Br)c1 | 9.23%
Cc1ccnc(NS(=O)(=O)c2ccc(NC(=O)C3CCCCC3)cc2)n1 | 11.4%
Cc1oc2ccc(O)cc2c1C(=O)c1ccc(Cl)cc1 | 9.07%
CCOc1ccc(NC(=O)N2CCc3ccccc3C2)cc1 | 2.65%
O=C1CCCN1CN(C(=O)c1ccccc1)c1ccc(F)cc1 | 4.13%
CC1=CC(=NOC(=O)c2cccc([N+](=O)[O-])c2)C=C(C)C1=O | 12%
CCN(C(=O)C1CCCN1S(=O)(=O)c1cccc2nsnc12)c1ccccc1 (centres unmarked) | -38.3%
Cc1cccc(S(=O)(=O)Nc2ccc(-c3ccc4nncn4n3)cc2)c1 | -123%
CCNc1nc(NCC)nc(OCC(=O)O)n1 | 7.6%
Cc1cc(C)c(C(N)=O)c(Cl)n1 | 19.9%
COc1ccc(NC(=O)NNC(=O)CCc2ccc(O)c(O)c2)cc1OC | 7.53%
